# The list shows a part of the results.
# Tests used:
# Assay in all cases: glycan array binding signal (z-score within array); higher = stronger binding
# Conditions in all cases: glycan notation: IUPAC condensed, linker removed
# [1] = molecular target: Neu5Ac(a2-3)Gal(b1-4)GlcNAc(b1-6)GalNAc
# Method in brief: (§1)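 The Consortium for Functional Glycomics database supplied 3228 glycan arrays, of which those lacking an available protein sequence were dropped. The binding signal, a within-array Z-score, was averaged across arrays of the same protein sequence and across linkers. Negative scores can be read as non-binding.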
# [2] = molecular target: Neu5Ac(a2-3)Gal(b1-4)GlcNAc(b1-6)[Gal(b1-3)]GalNAc
# Method in brief: as §1
# [3] = molecular target: Neu5Ac(a2-3)Gal(b1-4)GlcNAc(b1-6)[Neu5Ac(a2-3)Gal(b1-3)]GalNAc
# Method in brief: as §1
# [4] = molecular target: Neu5Ac(a2-3)Gal(b1-4)GlcNAc6S
# Method in brief: as §1
# [5] = molecular target: Neu5Ac(a2-3)Gal(b1-4)[Fuc(a1-3)]GlcNAc
# Method in brief: as §1
# [6] = molecular target: Neu5Ac(a2-3)Gal(b1-4)[Fuc(a1-3)]GlcNAc(b1-2)Man
# Method in brief: as §1
# [7] = molecular target: Neu5Ac(a2-3)Gal(b1-4)[Fuc(a1-3)]GlcNAc(b1-3)Gal
# Method in brief: as §1
# [8] = molecular target: Neu5Ac(a2-3)Gal(b1-4)[Fuc(a1-3)]GlcNAc(b1-3)Gal(b1-4)GlcNAc
# Method in brief: as §1
# [9] = molecular target: Neu5Ac(a2-3)Gal(b1-4)[Fuc(a1-3)]GlcNAc(b1-3)Gal(b1-4)[Fuc(a1-3)]GlcNAc(b1-3)Gal(b1-4)[Fuc(a1-3)]GlcNAc
# Method in brief: as §1
# [10] = molecular target: Neu5Ac(a2-3)Gal(b1-4)[Fuc(a1-3)]GlcNAc(b1-3)GalNAc
# Method in brief: as §1
# [11] = molecular target: Neu5Ac(a2-3)Gal(b1-4)[Fuc(a1-3)]GlcNAc(b1-6)[Gal(b1-3)]GalNAc
# Method in brief: as §1
# [12] = molecular target: Neu5Ac(a2-3)Gal(b1-4)[Fuc(a1-3)]GlcNAc(b1-6)[Neu5Ac(a2-3)Gal(b1-3)]GalNAc
# Method in brief: as §1
# [13] = molecular target: Neu5Ac(a2-3)Gal(b1-4)[Fuc(a1-3)]GlcNAc6S
# Method in brief: as §1
# [14] = molecular target: Neu5Ac(a2-3)Gal6S(b1-4)GlcNAc
# Method in brief: as §1
# [15] = molecular target: Neu5Ac(a2-3)Gal6S(b1-4)[Fuc(a1-3)]GlcNAc
# Method in brief: as §1
# Neu5Ac(a2-3)GalNAc = molecular target: Neu5Ac(a2-3)GalNAc
# Method in brief: as §1
# [16] = molecular target: Neu5Ac(a2-3)GalNAc(b1-4)GlcNAc
# Method in brief: as §1
# [17] = molecular target: Neu5Ac(a2-3)[GalNAc(b1-4)]Gal(b1-4)Glc
# Method in brief: as §1
# [18] = molecular target: Neu5Ac(a2-3)[GalNAc(b1-4)]Gal(b1-4)GlcNAc
# Method in brief: as §1
# [19] = molecular target: Neu5Ac(a2-3)[GalNAc(b1-4)]Gal(b1-4)GlcNAc(b1-3)GalNAc
# Method in brief: as §1
# [20] = molecular target: Neu5Ac(a2-3)[Neu5Ac(a2-6)]GalNAc
# Method in brief: as §1
# Neu5Ac(a2-6)Gal = molecular target: Neu5Ac(a2-6)Gal
# Method in brief: as §1
# [21] = molecular target: Neu5Ac(a2-6)Gal(b1-3)GlcNAc(b1-3)[Gal(b1-4)GlcNAc(b1-6)]Gal(b1-4)Glc
# Method in brief: as §1
# Neu5Ac(a2-6)Gal(b1-4)Glc = molecular target: Neu5Ac(a2-6)Gal(b1-4)Glc
# Method in brief: as §1
# [22] = molecular target: Neu5Ac(a2-6)Gal(b1-4)GlcNAc
# Method in brief: as §1
# [23] = molecular target: Neu5Ac(a2-6)Gal(b1-4)GlcNAc(b1-2)Man
# Method in brief: as §1
# [24] = molecular target: Neu5Ac(a2-6)Gal(b1-4)GlcNAc(b1-2)Man(a1-3)Man(b1-4)GlcNAc(b1-4)GlcNAc
# Method in brief: as §1
# [25] = molecular target: Neu5Ac(a2-6)Gal(b1-4)GlcNAc(b1-2)Man(a1-3)[Gal(b1-4)GlcNAc(b1-2)Man(a1-6)]Man(b1-4)GlcNAc(b1-4)GlcNAc
# Method in brief: as §1
# [26] = molecular target: Neu5Ac(a2-6)Gal(b1-4)GlcNAc(b1-2)Man(a1-3)[GlcNAc(b1-2)Man(a1-6)]Man(b1-4)GlcNAc(b1-4)GlcNAc
# Method in brief: as §1
# [27] = molecular target: Neu5Ac(a2-6)Gal(b1-4)GlcNAc(b1-2)Man(a1-3)[GlcNAc(b1-4)][Neu5Ac(a2-6)Gal(b1-4)GlcNAc(b1-2)Man(a1-6)]Man(b1-4)GlcNAc(b1-4)GlcNAc
# Method in brief: as §1
# [28] = molecular target: Neu5Ac(a2-6)Gal(b1-4)GlcNAc(b1-2)Man(a1-3)[Man(a1-6)]Man(b1-4)GlcNAc(b1-4)GlcNAc
# Method in brief: as §1
# [29] = molecular target: Neu5Ac(a2-6)Gal(b1-4)GlcNAc(b1-2)Man(a1-3)[Neu5Ac(a2-3)Gal(b1-4)GlcNAc(b1-2)Man(a1-6)]Man(b1-4)GlcNAc(b1-4)GlcNAc
# Method in brief: as §1
# [30] = molecular target: Neu5Ac(a2-6)Gal(b1-4)GlcNAc(b1-2)Man(a1-3)[Neu5Ac(a2-6)Gal(b1-4)GlcNAc(b1-2)Man(a1-6)]Man(b1-4)GlcNAc(b1-4)GlcNAc
# Method in brief: as §1
# [31] = molecular target: Neu5Ac(a2-6)Gal(b1-4)GlcNAc(b1-2)Man(a1-3)[Neu5Ac(a2-6)Gal(b1-4)GlcNAc(b1-2)Man(a1-6)]Man(b1-4)GlcNAc(b1-4)[Fuc(a1-6)]GlcNAc
# Method in brief: as §1
# [32] = molecular target: Neu5Ac(a2-6)Gal(b1-4)GlcNAc(b1-2)Man(a1-6)Man(b1-4)GlcNAc(b1-4)GlcNAc
# Method in brief: as §1
# [33] = molecular target: Neu5Ac(a2-6)Gal(b1-4)GlcNAc(b1-2)Man(a1-6)[Gal(b1-4)GlcNAc(b1-2)Man(a1-3)]Man(b1-4)GlcNAc(b1-4)GlcNAc
# Method in brief: as §1
# [34] = molecular target: Neu5Ac(a2-6)Gal(b1-4)GlcNAc(b1-2)Man(a1-6)[GlcNAc(b1-2)Man(a1-3)]Man(b1-4)GlcNAc(b1-4)GlcNAc
# Method in brief: as §1
# [35] = molecular target: Neu5Ac(a2-6)Gal(b1-4)GlcNAc(b1-2)Man(a1-6)[Man(a1-3)]Man(b1-4)GlcNAc(b1-4)GlcNAc
# Method in brief: as §1
# [36] = molecular target: Neu5Ac(a2-6)Gal(b1-4)GlcNAc(b1-2)[Neu5Ac(a2-6)Gal(b1-4)GlcNAc(b1-4)]Man(a1-3)[GlcNAc(b1-4)][Neu5Ac(a2-6)Gal(b1-4)GlcNAc(b1-2)[Neu5Ac(a2-6)Gal(b1-4)GlcNAc(b1-6)]Man(a1-6)]Man(b1-4)GlcNAc(b1-4)GlcNAc
# Method in brief: as §1
# [37] = molecular target: Neu5Ac(a2-6)Gal(b1-4)GlcNAc(b1-2)[Neu5Ac(a2-6)Gal(b1-4)GlcNAc(b1-4)]Man(a1-3)[GlcNAc(b1-4)][Neu5Ac(a2-6)Gal(b1-4)GlcNAc(b1-4)Man(a1-6)]Man(b1-4)GlcNAc(b1-4)GlcNAc
# Method in brief: as §1
# [38] = molecular target: Neu5Ac(a2-6)Gal(b1-4)GlcNAc(b1-2)[Neu5Ac(a2-6)Gal(b1-4)GlcNAc(b1-6)]Man(a1-6)[Neu5Ac(a2-6)Gal(b1-4)GlcNAc(b1-2)Man(a1-3)][GlcNAc(b1-4)]Man(b1-4)GlcNAc(b1-4)GlcNAc
# Method in brief: as §1
# [39] = molecular target: Neu5Ac(a2-6)Gal(b1-4)GlcNAc(b1-3)Gal(b1-3)GlcNAc
# Method in brief: as §1
# [40] = molecular target: Neu5Ac(a2-6)Gal(b1-4)GlcNAc(b1-3)Gal(b1-4)GlcNAc
# Method in brief: as §1
# [41] = molecular target: Neu5Ac(a2-6)Gal(b1-4)GlcNAc(b1-3)Gal(b1-4)GlcNAc(b1-2)Man(a1-3)[Neu5Ac(a2-6)Gal(b1-4)GlcNAc(b1-3)Gal(b1-4)GlcNAc(b1-2)Man(a1-6)]GalNAc
# Method in brief: as §1
# [42] = molecular target: Neu5Ac(a2-6)Gal(b1-4)GlcNAc(b1-3)Gal(b1-4)GlcNAc(b1-3)Gal(b1-4)GlcNAc
# Method in brief: as §1
binder,measurement,setting,value
"mCC1-Hexahis-Precomplexed (Mus musculus), P31809 (protein) MELASAHLHKGQVPWGGLLLTASLLASWSPATTAEVTIEAVPPQVAEDNNVLLLVHNLPLALGAFAWYKGNTTAIDKEIARFVPNSNMNFTGQAYSGREIIYSNGSLLFQMITMKDMGVYTLDMTDENYRRTQATVRFHVHPILLKPNITSNNSNPVEGDDSVSLTCDSYTDPDNINYLWSRNGESLSEGDRLKLSEGNRTLTLLNVTRNDTGPYVCETRNPVSVNRSDPFSLNIIYGPDTPIISPSDIYLHPGSNLNLSCHAASNPPAQYFWLINEKPHASSQELFIPNITTNNSGTYTCFVNNSVTGLSRTTVKNITVLEPVTQPFLQVTNTTVKELDSVTLTCLSNDIGANIQWLFNSQSLQLTERMTLSQNNSILRIDPIKREDAGEYQCEISNPVSVRRSNSIKLDIIFDPTQGGLSDGHHHHHH",glycan array binding signal (z-score),[1],-0.237
same,glycan array binding signal (z-score),[2],-0.066
same,glycan array binding signal (z-score),[3],-0.183
same,glycan array binding signal (z-score),[4],-0.222
same,glycan array binding signal (z-score),[5],-0.172
same,glycan array binding signal (z-score),[6],-0.22
same,glycan array binding signal (z-score),[7],-0.197
same,glycan array binding signal (z-score),[8],-0.1
same,glycan array binding signal (z-score),[9],0.487
same,glycan array binding signal (z-score),[10],-0.087
same,glycan array binding signal (z-score),[11],0.076
same,glycan array binding signal (z-score),[12],-0.12
same,glycan array binding signal (z-score),[13],-0.277
same,glycan array binding signal (z-score),[14],-0.169
same,glycan array binding signal (z-score),[15],-0.282
same,glycan array binding signal (z-score),Neu5Ac(a2-3)GalNAc,-0.288
same,glycan array binding signal (z-score),[16],-0.292
same,glycan array binding signal (z-score),[17],-0.135
same,glycan array binding signal (z-score),[18],-0.089
same,glycan array binding signal (z-score),[19],3.55
same,glycan array binding signal (z-score),[20],-0.3
same,glycan array binding signal (z-score),Neu5Ac(a2-6)Gal,-0.145
same,glycan array binding signal (z-score),[21],-0.191
same,glycan array binding signal (z-score),Neu5Ac(a2-6)Gal(b1-4)Glc,-0.195
same,glycan array binding signal (z-score),[22],-0.133
same,glycan array binding signal (z-score),[23],-0.158
same,glycan array binding signal (z-score),[24],-0.116
same,glycan array binding signal (z-score),[25],-0.215
same,glycan array binding signal (z-score),[26],-0.18
same,glycan array binding signal (z-score),[27],-0.101
same,glycan array binding signal (z-score),[28],0.014
same,glycan array binding signal (z-score),[29],-0.176
same,glycan array binding signal (z-score),[30],-0.156
same,glycan array binding signal (z-score),[31],-0.24
same,glycan array binding signal (z-score),[32],-0.152
same,glycan array binding signal (z-score),[33],-0.207
same,glycan array binding signal (z-score),[34],-0.233
same,glycan array binding signal (z-score),[35],-0.124
same,glycan array binding signal (z-score),[36],-0.178
same,glycan array binding signal (z-score),[37],-0.226
same,glycan array binding signal (z-score),[38],-0.129
same,glycan array binding signal (z-score),[39],-0.285
same,glycan array binding signal (z-score),[40],-0.188
same,glycan array binding signal (z-score),[41],0.836
same,glycan array binding signal (z-score),[42],-0.234
